# Measurements from PubChem BioAssay AID1468 (National Center for Advancing Translational Sciences (NCATS), 2008).
# The whole screen tested about 280,000 compounds, of which about 1,100 (0.39%) were called active. The inconclusive results got no clear call from the source; some entries with a clear call stand among them for comparison. Calls follow the shape of the dose curve; as a rule, active = well fitted inhibition curve with a large enough effect; inconclusive = small, poorly fitted or top-dose-only effect, or effect the other way; inactive = flat fitted curve, though single readings scatter. Potencies of inconclusive entries are left out as doubtful fits.
# Target: Microtubule-associated protein tau (Homo sapiens) (UniProt P10636)
# Experiment: qHTS for Inhibitors of Tau Fibril Formation, Fluorescence Polarization; also: nearly all actives have a fitted effect of over 55% in size
# Settings: K18 P301L tau heparin fibrillization, Alexa594 FP, 6 h; series mostly up to 57.7 µM; activity, negative = inhibition: at the top concentration
# Summary of the method: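 K18 P301L tau (15 uM unlabeled/0.24 uM Alexa 594-labeled, final) + compound + heparin 20 uM final; 100 mM NaOAc pH 7; 6 hr 37 C; ThT 30 uM final added, 1 hr RT; FP ex 555/em 632 nm.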
# % is scaled to controls: 0 for no effect and ±100 for the full control effect; potency is read from the fitted curve at half-maximal effect; tags tell the direction and shape of the fitted curve.
# Sequence of UniProt P10636 (P10636 whole entry, looked up): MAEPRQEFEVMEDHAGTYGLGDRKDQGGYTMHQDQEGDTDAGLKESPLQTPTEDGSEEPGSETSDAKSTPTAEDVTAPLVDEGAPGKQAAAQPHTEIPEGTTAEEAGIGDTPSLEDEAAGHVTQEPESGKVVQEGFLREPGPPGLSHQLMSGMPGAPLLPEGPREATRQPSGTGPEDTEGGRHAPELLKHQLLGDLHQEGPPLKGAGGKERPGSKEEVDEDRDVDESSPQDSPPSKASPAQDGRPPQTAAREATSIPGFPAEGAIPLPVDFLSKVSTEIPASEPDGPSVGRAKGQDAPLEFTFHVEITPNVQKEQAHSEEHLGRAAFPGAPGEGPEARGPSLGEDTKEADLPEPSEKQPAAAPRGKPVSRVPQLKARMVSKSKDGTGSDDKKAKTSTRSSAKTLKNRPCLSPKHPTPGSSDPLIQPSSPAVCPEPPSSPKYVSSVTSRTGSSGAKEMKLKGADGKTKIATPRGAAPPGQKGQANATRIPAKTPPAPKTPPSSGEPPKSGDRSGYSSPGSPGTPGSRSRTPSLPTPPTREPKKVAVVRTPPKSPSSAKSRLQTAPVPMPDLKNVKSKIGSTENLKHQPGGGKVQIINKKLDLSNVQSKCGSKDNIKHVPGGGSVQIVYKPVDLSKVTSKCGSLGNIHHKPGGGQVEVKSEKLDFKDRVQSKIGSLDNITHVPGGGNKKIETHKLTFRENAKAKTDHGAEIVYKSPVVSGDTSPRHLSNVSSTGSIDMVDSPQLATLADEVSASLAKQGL
SMILES,"activity, negative = inhibition",Potency
Cc1nc(-c2ccc(C)c(S(=O)(=O)N3CCC(C(=O)NCc4ccc(F)cc4)CC3)c2)no1,inactive: -8.69%,
CC1CCC2C(=O)OC(COc3ccc(C(C)(C)C)cc3)CN2C1c1ccc(Br)cc1 (configuration not stated),inactive: 0.558% [at 11.6 µM] [middle of 5 runs],
Cc1ccc(C)c2[nH]c(=O)c(CN(CCN3CCCC3)C(=O)Nc3cccc(Cl)c3)cc12,inactive: 0.986%,
CCc1ccc(NC(=O)Cn2c(=O)n(CCc3ccccc3)c(=O)c3sc4ccccc4c32)cc1,,"inconclusive [inhibitor, partial curve, poor fit]"
CC(=O)c1cccc(N2C(=O)CN(S(C)(=O)=O)CC2(C)C(=O)NC2CCCC2)c1 (configuration not stated),,"inconclusive [inhibitor, single point]"
CCOC(=O)C(Oc1ccc2c(-c3ccccc3)cc(=O)oc2c1C)c1ccccc1 (configuration not stated),,"inconclusive [inhibitor, single point]"
Cc1ccc(C)c(CNC(=O)CN2C(=O)CSc3ccc(S(=O)(=O)N(C)C)cc32)c1,inactive: -1.69%,
CC(C)C[C@H](NC(=O)c1[nH]cnc1C(=O)Nc1ccc(CNC(=O)OC(C)(C)C)cc1)C(=O)OC(C)(C)C,,"inconclusive [inhibitor, full curve]"
Cc1nc(-c2ccc(C(=O)Nc3cccc(Br)c3)cc2)cs1,,"inconclusive [inhibitor, partial curve]"
COc1ccc(/C=C/C(=O)c2cc3cccc(OC)c3oc2=O)cc1,inactive: 13.7%,
Cc1cc(C)c(NC(=O)Cn2c(=O)n(CC(=O)NCCc3ccccc3)c(=O)c3ccccc32)c(C)c1,,"inconclusive [inhibitor, single point]"
CCOC(=O)c1cc(C#N)c(SCC(=O)c2cc(C#N)c(SC)nc2C)nc1C,,"inconclusive [inhibitor, single point]"
Cc1ccc(CCNC(=O)c2ccc3c(c2)N(Cc2ccc(F)cc2)CCS3)cc1,,"inconclusive [activator, full curve, poor fit]"
COc1cc(/C=C/C(=O)OCC(=O)N2CCN(S(=O)(=O)c3ccc(C)cc3C)CC2)ccc1O,,"inconclusive [activator, partial curve]"
CCOC(=O)N1CC=C2C(C#N)=C(N)C(C#N)(C#N)[C@H](c3cccs3)C2C1 (some centres not stated),inactive: -9.85%,
O=C(Nc1nc2cc3c(cc2s1)OCCO3)c1cccs1,,"inconclusive [inhibitor, single point]"
Cc1cc([N+](=O)[O-])nn1Cc1ccc(C(=O)N/N=C/c2ccc(O)cc2O)cc1,,"inconclusive [activator, single point]"
CC1CCCCC12NC(=S)N(c1ccccc1)N2 (configuration not stated),,"inconclusive [inhibitor, partial curve]"
COC(=O)c1ccc(CSc2cc(C)c3cccc(C)c3n2)o1,,"inconclusive [inhibitor, full curve, poor fit]"
CCc1ccc2occ(CC(=O)Nc3ccc(C)c(C)c3)c2c1,,"inconclusive [inhibitor, single point]"
C=CCc1cc(C=O)cc(OCC)c1OCc1ccc(Cl)cc1,inactive: -6.57%,
CSc1ccc(C2C(C#N)=C(N)Oc3c2ccc(=O)c2c(C)oc(C)c32)cc1 (configuration not stated),,"inconclusive [inhibitor, partial curve]"
COCCCNC(=O)C1CCN(c2nc3ccc(Cl)cc3[nH]2)CC1,inactive: -0.218%,

SMILES,"activity, negative = inhibition",Potency
CN(C)/C=C1/Nc2ccccc2C1=O,,"inconclusive [inhibitor, partial curve]"
O=C1NN(c2ccccc2)C(=O)/C1=C\c1ccc(-c2cc([N+](=O)[O-])ccc2O)o1,,"inconclusive [inhibitor, partial curve, poor fit]"
CCN(CC)C(=O)C1CCCN(c2ncnc3c2c(-c2ccccc2)cn3-c2cccc(C)c2)C1 (configuration not stated),inactive: -0.555%,
O=C(NCC1CC1)c1ccc(Nc2nc3ccc(Br)cc3[nH]2)cc1,,"inconclusive [inhibitor, single point]"
O=C(c1cc2cc3ccc(Cl)cc3nc2o1)N1CCN(c2cccc(Cl)c2)CC1,,"inconclusive [inhibitor, partial curve]"
COC(=O)[C@H]1C[C@@H]1[C@H](NC(=O)c1ccccc1)c1ccccc1,,"inconclusive [inhibitor, single point]"
COc1ccc(OC)c(NC(=O)CCc2c(C)nn(-c3ccc(N4CCCC4)nn3)c2C)c1,inactive: 5.76%,
Cc1ccc(N2CC(NC(=O)c3ccc(S(=O)(=O)N4CCCC4)cc3)CC2=O)cc1 (configuration not stated),inactive: -9.08%,
COc1cccc(/C=C/C(=O)c2cccc([N+](=O)[O-])c2)c1,,"inconclusive [activator, full curve]"
CCOC(=O)c1cnn(-c2ccc(NS(=O)(=O)c3ccc(Cl)cc3)cc2)c1C(F)(F)F,,"inconclusive [inhibitor, single point]"
CCOc1ccc(-c2cnc3ccccc3n2)cc1,inactive: -4.86%,
COc1cc2c(cc1OC)C(c1ccc(N(C)C)cc1)CC(=O)N2 (configuration not stated),inactive: 6.54%,
COc1ccc(Cl)cc1NC(=O)COc1cccc(-n2cnnn2)c1,,"inconclusive [inhibitor, partial curve]"
COC(=O)c1cccc(NC(=O)Nc2ccc(Cl)cc2Cl)c1,,"inconclusive [inhibitor, partial curve]"
COc1ccc(CNC(=O)c2cc(-c3cccc(Cl)c3)on2)cc1,inactive: -12.5%,
Cc1ccc(N2CC(C(=O)Nc3nnc(SCC(=O)Nc4nc(C)cs4)s3)CC2=O)cc1 (configuration not stated),inactive: 1.58%,
COc1ccc2[nH]c(=O)c(CNc3cc(C)ccc3C)cc2c1,inactive: -3.18%,
Cc1nc2sccn2c(=O)c1CCN1CCC(=C(c2ccc(F)cc2)c2ccc(F)cc2)CC1,,inactive
CC1CCCCN1S(=O)(=O)c1ccc(C(=O)Nc2ccccc2-c2nc3ccccc3[nH]2)cc1 (configuration not stated),,active: 14.1 µM
CC(=O)Nc1ccc(NC(=O)c2ccc(COc3ccc(Cl)cc3Cl)o2)cc1,,"inconclusive [inhibitor, single point]"
Cc1cccc(NC(=O)c2c(C)cc(C)nc2SCC(=O)Nc2c(C)cc(C)cc2C)c1,inactive: -6.41%,
Clc1ccc(CSc2nnc(-c3c[nH]c4ccccc34)o2)cc1,,"inconclusive [inhibitor, single point]"
O=C(CSCc1ccccc1)NCc1ccc2c(c1)OCO2,,"inconclusive [inhibitor, single point]"

SMILES,"activity, negative = inhibition",Potency
CC(=O)c1ccc(NC(=O)C(C)n2nc(-c3ccccc3)c3cc(Cl)ccc32)cc1 (configuration not stated),,"inconclusive [inhibitor, partial curve]"
CCOC(=O)c1sc(NC(=O)c2ccc(S(=O)(=O)N3CCCCCC3)cc2)nc1-c1ccccc1,,"inconclusive [inhibitor, full curve]"
O=C(Nc1ccc(O)c2c(=O)cc(-c3ccccc3Cl)oc12)c1cccc(Cl)c1,,"inconclusive [inhibitor, partial curve]"
COc1ccc(Nc2nc3cc(Cl)c(Cl)cc3n3cnnc23)cc1Cl,inactive: -2.6%,
CC(=O)C1=C(O)C(=O)N(CCCN2CCOCC2)C1c1ccccc1[N+](=O)[O-] (configuration not stated),,"inconclusive [inhibitor, single point]"
COc1ccc2c(c1)sc(=N)n2C,,"inconclusive [inhibitor, single point]"
O=C1c2c(O)ccc(O)c2C(=O)c2c(NCCNCCO)ccc(NCCNCCO)c21,,"inconclusive [inhibitor, partial curve]"
CCc1nc(SCC(=O)c2ccc(C)c(C)c2)n[nH]1,inactive: -2.93%,
CC(C)Oc1ccc(CNC(=O)c2ccc(CS(=O)Cc3ccccc3Cl)o2)cc1 (configuration not stated),,"inconclusive [activator, single point]"
CCOC(=O)C(C)(C)N(Cc1cccc(C)c1)S(=O)(=O)c1cccc([N+](=O)[O-])c1,,"inconclusive [activator, partial curve]"
O=c1c(C(c2ccc(Br)cc2)c2c(O)nc3n(c2=O)CCCS3)c(O)nc2n1CCCS2,,"inconclusive [inhibitor, partial curve, poor fit]"
Cc1ccc2c(CC(=O)N3CCN(c4cccc(Cl)c4)CC3)coc2c1C,,"inconclusive [inhibitor, single point]"
Cc1cccc(OCCSc2nc3ccc(NC(=O)COc4ccccc4C)cc3s2)c1,,"inconclusive [inhibitor, single point]"
O=C(Cc1nnc(NC(=O)Nc2ccccc2F)s1)NCc1ccccc1,,"inconclusive [inhibitor, single point]"
COC(=O)c1ccc(Nc2nc(-c3ccc(C)cc3)nc3ccccc23)cc1,,active: 3.55 µM
COc1cc(-c2noc(-c3ccc(N4CCCC4)c([N+](=O)[O-])c3)n2)cc(OC)c1OC,,"inconclusive [inhibitor, single point]"
COc1ccc(-n2c3c(cc(C#N)c2=O)C(=O)CCC3)cc1,inactive: -6.36%,
C=CCn1c(=O)/c(=C2/Sc3cc(OC)ccc3N2C)s/c1=C1\C(=O)N(CC)C(=S)N1C,inactive: 19.5%,
CN(C)C1C(=O)C(C(N)=O)C(=O)C2(O)C(=O)C3C(=O)c4c(O)ccc(Cl)c4C(O)C3CC12 (configuration not stated),inactive: -10.6%,
Cc1sc(NC(=O)c2ccccc2)c(C(=O)c2ccccc2)c1C,inactive: -6.14%,
COc1ccc(NC(=O)c2ccc3c(c2)N(Cc2cccc(Cl)c2)C(=O)c2ccccc2S3(=O)=O)cc1Cl,,active: 15.8 µM
